{"source": "patent US8663679B2", "about": "“Compositions for improving breast health in women” (Abbott Laboratories, priority 2004, dated 2014)", "key": {"[1]": {"tested_on": "HECV endothelial cells"}, "[2]": {"tested_on": "HECV endothelial cells", "conditions": "cited from earlier work"}}, "note": "Read-outs that look alike come from different tables or passages of the source."}
{"compound": "[I-].[K+]", "note": "[Iodine, potassium iodide]", "values": [{"measurement": "concentration of most effect on transendothelial resistance", "setting": "[1]; HECV, tested at 10, 100, 1000 ng/ml", "value": 10, "unit": "ng/mL"}]}
{"compound": "CCCCC/C=C\\C/C=C\\C/C=C\\CCCCC(=O)O", "note": "[GLA, (Z,Z,Z)-6,9,12-octadecatrienoic acid]", "values": [{"measurement": "concentration of most effect on transendothelial resistance", "setting": "[1]; HECV, tested at 10, 100, 200 μM", "value": 100, "unit": "µM"}]}
{"compound": "O=[Se](=O)([O-])[O-].[Na+].[Na+]", "note": "[Selenium, sodium selenate]", "values": [{"measurement": "concentration of most effect on transendothelial resistance", "setting": "[1]", "value": 100, "unit": "ng/mL"}]}
{"compound": "17-β-estradial [estrogen]", "values": [{"measurement": "tight junction function in endothelial cells (known effect)", "setting": "[2]", "value": "reduce tight junction function"}]}
